Assay results reported in PubChem BioAssay AID504832 (National Center for Advancing Translational Sciences (NCATS), 2011).
In all, about 310,000 compounds went through this assay and about 18,000 (5.8%) were called active. The shares of active, inactive and inconclusive entries below differ from those in the screen. Calls follow the shape of the dose curve; as a rule, active = well fitted inhibition curve with a large enough effect; inconclusive = small, poorly fitted or top-dose-only effect, or another doubt; inactive = no such curve, though single readings can be large or run the other way. Potencies of inconclusive entries are left out as doubtful fits.

Test: Primary qHTS for delayed death inhibitors of the malarial parasite plastid, 48 hour incubation
Settings: P. falciparum luciferase growth in erythrocytes; series mostly up to 28.7 µM; activity change, negative = inhibition: at the top concentration
Outline: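 Luciferase-expressing P. falciparum in infected erythrocytes (2% hematocrit, 0.1% parasitemia final) in RPMI 1640/0.5% Albumax were exposed to compound for 48 hours at 37 C, 5% CO2; growth read as luminescence.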
% is scaled to controls: 0 for no effect and ±100 for the full control effect; potency is read from the fitted curve at half-maximal effect; tags tell the direction and shape of the fitted curve.

| Structure (SMILES) | Potency | activity change, negative = inhibition |
| --- | --- | --- |
| O=c1sc2ccccc2c(=O)n1Cc1ccccc1F | inconclusive [inhibitor, single point] |  |
| Cc1c(C(=O)N2CCc3ccccc32)oc2c1C(=O)CC(C)(C)C2 |  | inactive: 21% |
| O=C(CCc1nc2ccccc2[nH]c1=O)OCc1ccc(S(=O)(=O)N2CCOCC2)cc1 | inconclusive [inhibitor, partial curve, poor fit] |  |
| CCOc1ccccc1N1CCN(CC(=O)NCCc2ccc(S(N)(=O)=O)cc2)CC1 | inconclusive [inhibitor, single point] |  |
| Cc1ccc(CNc2nc(N)c([N+](=O)[O-])c(NCCO)n2)cc1 | inconclusive [inhibitor, partial curve, poor fit] |  |
| Cc1ccc2nc(/C(C#N)=C\c3ccc(N4CCCCC4)c([N+](=O)[O-])c3)[nH]c2c1 | inconclusive [inhibitor, single point] |  |
| Fc1ccc(Nc2c3c(nc4ccccc24)CCC3)cc1 | inconclusive [inhibitor, single point] |  |
| COc1ccc(CC(=O)Nc2cccc(S(=O)(=O)N3CCCCCC3)c2)cc1OC | inconclusive [inhibitor, partial curve] |  |
| Nc1c(C(=O)Nc2ccc3c(c2)OCCO3)nnn1Cc1cccc(Br)c1 | inconclusive [inhibitor, single point] |  |
| CCOc1ccc(NC(=O)C(Cc2ccccc2)N2C(=O)c3cccc4cccc(c34)C2=O)cc1 (stereo not given) | inconclusive [inhibitor, full curve] |  |
| Cc1ccsc1C1Nc2ccc3ncccc3c2C2=C1C(=O)CCC2 (stereo not given) | active: 10.4 µM |  |
| COc1ccc(CNC(=O)CCC(=O)N2CCN(S(=O)(=O)c3cc([N+](=O)[O-])ccc3C)CC2)cc1 | inconclusive [inhibitor, single point] |  |
| COc1ccc(S(=O)(=O)N2CCN(C(=O)c3ccc(NC(C)=O)cc3)CC2)cc1 | inconclusive [inhibitor, partial curve, poor fit] |  |
| COc1cc(C)ccc1NC(=O)Cc1csc(NC(=O)Nc2ccccc2OC)n1 | inconclusive [inhibitor, single point] |  |
| CC1CC(N(C(=O)C2CC2)c2ccccc2)c2ccccc2N1C(=O)C1CC1 (stereo not given) | inconclusive [inhibitor, partial curve, poor fit] |  |
| COc1ccc(F)cc1S(=O)(=O)Nc1ccc2c(c1)OCCO2 |  | inactive: -15.1% |
| COc1ccc(NC(=S)NNC(=S)Nc2cccc(C(F)(F)F)c2)cc1 | inconclusive [inhibitor, single point] |  |
| C=C(C)C(=O)OCC(O)COc1ccc(C(C)(C)c2ccc(OCC(O)COC(=O)C(=C)C)cc2)cc1 (stereo not given) | inconclusive [inhibitor, single point] |  |
| CCc1nc2oc3cc(OC)ccc3c(=O)c2c(=O)n1Cc1ccco1 | active: 11.7 µM |  |
| CC1C/C(=N/N2C(=O)CSC2=S)CC(C)(C)C1 (stereo not given) |  | inactive: 31.4% |
| COc1ccc(-n2c(SCC(=O)NNC(=O)c3ccc(C)cc3)nnc2-c2ccncc2)cc1 |  | inactive: 3.49% |
| COc1ccccc1NC(=S)NC(NC(=O)CC(C)C)C(Cl)(Cl)Cl (stereo not given) | active: 14.7 µM |  |
| COc1ccc(OC)c(S(=O)(=O)n2cnc3cc(C)c(C)cc32)c1 | inconclusive [inhibitor, partial curve, poor fit] |  |
| COc1ccc(CNc2nc3ccccc3n2C(C)C)c(O)c1 | active: 11.7 µM |  |

| Structure (SMILES) | Potency | activity change, negative = inhibition |
| --- | --- | --- |
| CCOC(=O)c1ccc(Nc2nc(N3CCOCC3)nc(N3CCOCC3)n2)cc1 | inconclusive [inhibitor, partial curve] |  |
| CCOc1cc(Br)c(CC(=O)NC2CCCCCC2)cc1OCC | inconclusive [inhibitor, partial curve] |  |
| Nc1ccc2nn(-c3cccc4ccccc34)nc2c1 | inconclusive [inhibitor, single point] |  |
| Nc1c(C(=O)NCc2ccc3c(c2)OCO3)nnn1Cc1ccc(Br)cc1 |  | inactive: -8.53% |
| CCCCN(C)c1c(N2CCC(C(=O)OCC)CC2)c(=O)c1=O |  | inactive: -25.6% |
| CN(C)C(=O)N1CCN(C(=O)c2ccco2)CC1 |  | inactive: 21.8% |
| Cc1cc(NC(=O)Cn2nc(C(=O)O)c3ccccc3c2=O)c([N+](=O)[O-])cc1C |  | inactive: 20.1% |
| COc1cc(C(=O)NNC(=O)c2n[nH]c3ccccc23)cc(OC)c1OC |  | inactive: -3.39% |
| CCOc1ccc(S(=O)(=O)N2CCN(Cc3ccco3)CC2)cc1 | inconclusive [inhibitor, single point] |  |
| CCc1ccccc1NNC(=O)c1snnc1C | inconclusive [inhibitor, partial curve, poor fit] |  |
| Cc1oc2c(C)c3oc(=O)c(CCC(=O)NCCCN4CCOCC4)c(C)c3cc2c1C | inconclusive [inhibitor, full curve] |  |
| CC(NC(=O)Nc1ccc(Cl)cc1)c1ccccc1 (stereo not given) |  | inactive: 23.6% |
| Cn1nccc1C(=O)Nc1sc2c(c1C(N)=O)CCCC2 |  | inactive: 31.4% |
| O=C(c1cc(-c2ccc(Br)cc2)nc2ccccc12)N1CCN(c2ccccc2O)CC1 | active: 5.86 µM |  |
| COc1ccc(-c2nc(-c3ccc4c(c3)OCO4)[nH]c2-c2ccc(OC)cc2)cc1 | inconclusive [inhibitor, single point] |  |
| COc1ccc(Cn2c(-c3ccc(Cl)cc3)c[n+]3ccccc23)cc1 | active: 0.522 µM |  |
| O=C1CC(c2ccc3c(c2)OCO3)Sc2nc3ccccc3n21 (stereo not given) |  | inactive: -21.5% |
| COC(=O)c1ccc(C(C(=O)NCc2ccccc2)N(Cc2ccco2)C(=O)c2cnccn2)cc1 (stereo not given) | inconclusive [inhibitor, partial curve, poor fit] |  |
| CCOC(=O)CCc1c(C)nc2cc(-c3ccccc3OC)[nH]n2c1=O | inconclusive [inhibitor, single point] |  |
| CNC(=S)N/N=C/c1ccc(-c2ccc(Cl)c([N+](=O)[O-])c2)o1 | inconclusive [inhibitor, partial curve, poor fit] |  |
| COc1ccc(OC)c(-c2csc(NC(=O)Cc3ccccc3)n2)c1 | inconclusive [inhibitor, single point] |  |
| COC(=O)CSc1nc2c(c(-c3ccco3)c1C#N)CCCC2 | active: 1.85 µM |  |
| COC(=O)c1ccccc1NC(=O)CSc1nc2ncccc2[nH]1 |  | inactive: 1.87% |
| O=C(Nc1nc2ccc(S(=O)(=O)N3CCCC3)cc2s1)C1CCCCC1 | inconclusive [inhibitor, partial curve] |  |

| Structure (SMILES) | Potency | activity change, negative = inhibition |
| --- | --- | --- |
| Cc1ccc(NC(=S)N2CCN(CCN3C(=O)c4cccc5cccc(c45)C3=O)CC2)cc1 | inconclusive [inhibitor, single point] |  |
| O=C(CN1CC(=O)Nc2ccccc21)NCCc1ccc(Cl)cc1Cl |  | inactive: -27.6% |
| COCCN1C=C2C(=O)C(C)(OC(=O)CCc3ccccc3)C(=O)C=C2C=C1c1ccc(C#N)cc1 (stereo not given) | inconclusive [inhibitor, single point] |  |
| O=C(COc1ccc(Cl)cc1)Nc1ccccc1Cl | inconclusive [inhibitor, partial curve, poor fit] |  |
| CN(Cc1nc(Cc2ccccc2F)no1)CC1(N2CCOCC2)CCCCC1 | inconclusive [inhibitor, partial curve, poor fit] |  |
| Cc1ccccc1Nc1nc(N)nc(COC(=O)c2ccc(O)cc2)n1 | inconclusive [inhibitor, partial curve] |  |
| Cc1cc(Cl)ccc1NNC(=O)CCc1ccccc1 | inconclusive [inhibitor, full curve, poor fit] |  |
| O=C(Cn1c(COc2ccccc2)nc2ccccc21)Nc1cc(Cl)c(Cl)cc1Cl | inconclusive [inhibitor, single point] |  |
| CCOc1ccc(CCNC(=O)c2sc3nc4n(c(=O)c3c2C)CCC4)cc1 |  | inactive: -8.93% |
| CCn1cc(Cl)c(C(=O)Nc2ccc(OC)c(OC)c2)n1 |  | inactive: 24.5% |
| COc1ccc(CCNC(=O)CSCc2ccc(Br)cc2)cc1OC | inconclusive [inhibitor, full curve, poor fit] |  |
| Cc1nc(C)c(C(=O)N2CCCC(C(=O)c3ccc4ccccc4c3)C2)s1 (stereo not given) |  | inactive: 7.38% |
| Cc1ccc(CCNC(=O)CC(C)CC2=NS(=O)(=O)c3ccccc3N2)cc1 (stereo not given) | inconclusive [inhibitor, single point] |  |
| COc1ccc(Cl)cc1NC(=O)Nc1cc(C)on1 |  | inactive: 192% |
| CCN(CC)c1ccc(/C=N/NC(=O)c2ccoc2C)c(O)c1 | active: 1.31 µM |  |
| CCOC(=O)c1cnc2ccc(OCC)cc2c1NCCCN1CCOCC1 | inconclusive [inhibitor, full curve, poor fit] |  |
| Cc1ccc(-c2nc3ccccc3c(=O)n2-c2ccc(O)cc2)cc1 | inconclusive [inhibitor, single point] |  |
| Cc1ccc(Cn2nc(C)c(C(=O)NCC(c3cccs3)N3CCOCC3)c2Cl)cc1 (stereo not given) | active: 11.7 µM |  |
| COc1cc(CCN2C(=O)c3cccc4cccc(c34)C2=O)c(S(=O)(=O)N2CCCCCC2)cc1OC | inconclusive [inhibitor, partial curve, poor fit] |  |
| O=C(COc1ccccc1)Nc1ccc(N2CCN(C(=O)c3cccs3)CC2)cc1 | inconclusive [inhibitor, partial curve] |  |
| CC1(C)CC(=O)c2cc(C(=O)NC3CCSC3=O)c(=O)n(-c3ccc(Cl)cc3)c2C1 (stereo not given) |  | inactive: -13.9% |
| COc1ccccc1Cn1c(=S)[nH]c2cc(C(=O)NCC(OC)OC)ccc2c1=O | inconclusive [inhibitor, partial curve] |  |
